The supplement of paper PMC12217912
Some of the results follow. The full chains were built here from the parent and the listed change. Inactive controls read about 0.05.

B1: TEV protease; numbered along this chain (parent)
chain: MGESLFKGPRDYNPISSSICHLTNESDGHTTSLYGIGFGPFIITNKHLFRRNNGTLVVQSLHGVFKVKDTTTLQQHLVDGRDMIIIRMPKDFPPFPQKLKFREPQREERICLVTTNFQTKSMSSMVSDTSCTFPSGDGIFWKHWIQTKDGQCGSPLVSTRDGFIVGIHSASNFTNTNNYFTSVPKNFMELLTNQEAQQWVSGWRLNADSVLWGGHKVFMVKPEEPFQPVKEATQL

Variants of: B1
Test: raw area under fraction-flipped curve 0-4 h after induction (AUC4h, not background-subtracted), DNA-recorder readout of cleavage of the substrate (dimensionless); higher = more cleavage of the substrate by the protease variant
Details: temperature: 34 °C; time window: 0-4 h after rhamnose induction
Method: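 In vivo DNA recorder in E. coli TOP10(DE3) ΔrhaA at 34 °C. Each TEVp single-site mutant (parent TEVp 0) is paired with a single-site variant of the 7-mer TEVs (canonical ENLYFQ|S). The substrate sits between flexible linkers in a Bxb1-sfGFP-TEVs-SsrA fusion, so cleavage stabilises Bxb1 and speeds flipping of a recombination array, read by NGS. The value is the raw area under the fraction-flipped curve over 0-4 h after rhamnose induction (AUC4h), with ≥20 reads per time point. It is not background-subtracted; inactive controls average about 0.047.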
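Note: Bxb1 expression induced with 0.2% (w/v) L-rhamnose at OD600 near 0.5, cultures sampled hourly, flipped fraction per protease–substrate barcode pair counted by paired-end Illumina sequencing.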

| Variant | area with substrate CNLYFQS | area with substrate FNLYFQS | area with substrate HNLYFQS | area with substrate INLYFQS | area with substrate KNLYFQS | area with substrate LNLYFQS | area with substrate NNLYFQS | area with substrate PNLYFQS | area with substrate QNLYFQS | area with substrate SNLYFQS | area with substrate TNLYFQS | area with substrate VNLYFQS | area with substrate WNLYFQS | area with substrate MNLYFQS | area with substrate GNLYFQS | area with substrate YNLYFQS | area with substrate RNLYFQS |
| --- | --- | --- | --- | --- | --- | --- | --- | --- | --- | --- | --- | --- | --- | --- | --- | --- | --- |
| MGESLFKGPRDYNPISSSICHLTNESDGHTTSLYGIGFGPFIITNKHLFRRNNGTLVVQSLHGVFKVKDTTTLQQHLVDGRDMIIIRMPKDFPPFPQKLKFREPQREERICLVTTNFQTKSMSSMVSDTSCTFPSGDGIFWKHWIQTKDGQCGSPLVSTRDGFIVGIHSASNFTNTNNYFTSVPKNFMELLTNQEAQQWVSGWRLNADSDLWGGHKVFMVKPEEPFQPVKEATQL [V210D] | 0.0637 | 0.0562 | 0.0572 | 0.0737 | 0.064 | 0.0619 | 0.0615 | 0.0816 | 0.0523 | 0.0589 | 0.0566 | 0.0669 | 0.0566 | – | – | – | – |
| MGESLFKGPRDYNPISSSICHLTNESDGHTTSLYGIGFGPFIITNKHLFRRNNGTLVVQSLHGVFKVKDTTTLQQHLVDGRDMIIIRMPKDFPPFPQKLKFREPQREERICLVTTNFQTKSMSSMVSDTSCTFPSGDGIFWKHWIQTKDGQCGSPLVSTRDGFIVGIHSASNFTNTNNYFTSVPKNFMELLTNQEAQQWVSGWRLNADSGLWGGHKVFMVKPEEPFQPVKEATQL [V210G] | 0.0567 | – | – | – | – | – | – | 0.0493 | – | – | 0.0422 | – | 0.0567 | 0.06 | – | – | – |
| MGESLFKGPRDYNPISSSICHLTNESDGHTTSLYGIGFGPFIITNKHLFRRNNGTLVVQSLHGVFKVKDTTTLQQHLVDGRDMIIIRMPKDFPPFPQKLKFREPQREERICLVTTNFQTKSMSSMVSDTSCTFPSGDGIFWKHWIQTKDGQCGSPLVSTRDGFIVGIHSASNFTNTNNYFTSVPKNFMELLTNQEAQQWVSGWRLNADSKLWGGHKVFMVKPEEPFQPVKEATQL [V210K] | 0.099 | 0.0558 | 0.0585 | – | 0.0678 | 0.0648 | 0.065 | – | – | – | 0.0528 | 0.063 | 0.0503 | 0.063 | 0.053 | 0.0636 | – |
| MGESLFKGPRDYNPISSSICHLTNESDGHTTSLYGIGFGPFIITNKHLFRRNNGTLVVQSLHGVFKVKDTTTLQQHLVDGRDMIIIRMPKDFPPFPQKLKFREPQREERICLVTTNFQTKSMSSMVSDTSCTFPSGDGIFWKHWIQTKDGQCGSPLVSTRDGFIVGIHSASNFTNTNNYFTSVPKNFMELLTNQEAQQWVSGWRLNADSVLMGGHKVFMVKPEEPFQPVKEATQL [W212M] | 0.0904 | – | 0.0589 | 0.0739 | 0.084 | – | – | – | – | 0.0703 | 0.074 | 0.104 | – | 0.0799 | 0.0638 | 0.0687 | – |
| MGESLFKGPRDYNPISSSICHLTNESDGHTTSLYGIGFGPFIITNKHLFRRNNGTLVVQSLHGVFKVKDTTTLQQHLVDGRDMIIIRMPKDFPPFPQKLKFREPQREERICLVTTNFQTKSMSSMVSDTSCTFPSGDGIFWKHWIQTKDGQCGSPLVSTRDGFIVGIHSASNFTNTNNYFTSVPKNFMELLTNQEAQQWVSGWRLNADSVLWAGHKVFMVKPEEPFQPVKEATQL [G213A] | 0.0663 | 0.0627 | 0.0676 | 0.0571 | – | 0.058 | 0.052 | 0.0536 | – | 0.0595 | 0.065 | – | 0.0545 | 0.0533 | 0.0709 | 0.0656 | – |
| MGESLFKGPRDYNPISSSICHLTNESDGHTTSLYGIGFGPFIITNKHLFRRNNGTLVVQSLHGVFKVKDTTTLQQHLVDGRDMIIIRMPKDFPPFPQKLKFREPQREERICLVTTNFQTKSMSSMVSDTSCTFPSGDGIFWKHWIQTKDGQCGSPLVSTRDGFIVGIHSASNFTNTNNYFTSVPKNFMELLTNQEAQQWVSGWRLNADSVLWKGHKVFMVKPEEPFQPVKEATQL [G213K] | 0.0199 | 0.065 | 0.0661 | 0.0496 | 0.044 | 0.0654 | 0.0097 | 0.0605 | – | – | 0.0517 | 0.0727 | 0.0508 | 0.0541 | – | 0.0689 | – |
| MGESLFKGPRDYNPISSSICHLTNESDGHTTSLYGIGFGPFIITNKHLFRRNNGTLVVQSLHGVFKVKDTTTLQQHLVDGRDMIIIRMPKDFPPFPQKLKFREPQREERICLVTTNFQTKSMSSMVSDTSCTFPSGDGIFWKHWIQTKDGQCGSPLVSTRDGFIVGIHSASNFTNTNNYFTSVPKNFMELLTNQEAQQWVSGWRLNADSVLWSGHKVFMVKPEEPFQPVKEATQL [G213S] | 0.0524 | 0.0685 | 0.057 | 0.0644 | 0.0489 | 0.0788 | – | 0.084 | – | 0.054 | 0.0582 | 0.0356 | 0.056 | – | – | – | – |
| MGESLFKGPRDYNPISSSICHLTNESDGHTTSLYGIGFGPFIITNKHLFRRNNGTLVVQSLHGVFKVKDTTTLQQHLVDGRDMIIIRMPKDFPPFPQKLKFREPQREERICLVTTNFQTKSMSSMVSDTSCTFPSGDGIFWKHWIQTKDGQCGSPLVSTRDGFIVGIHSASNFTNTNNYFTSVPKNFMELLTNQEAQQWVSGWRLNADSVLWYGHKVFMVKPEEPFQPVKEATQL [G213Y] | 0.0385 | – | 0.0622 | – | 0.0604 | 0.0535 | 0.0604 | 0.0674 | – | 0.0347 | 0.0602 | – | 0.0613 | 0.0851 | – | 0.0628 | 0.0438 |
| MGESLFKGPRDYNPISSSICHLTNESDGHTTSLYGIGFGPFIITNKHLFRRNNGTLVVQSLHGVFKVKDTTTLQQHLVDGRDMIIIRMPKDFPPFPQKLKFREPQREERICLVTTNFQTKSMSSMVSDTSCTFPSGDGIFWKHWIQTKDGQCGSPLVSTRDGFIVGIHSASNFTNTNNYFTSVPKNFMELLTNQEAQQWVSGWRLNADSVLWGKHKVFMVKPEEPFQPVKEATQL [G214K] | 0.0547 | – | – | – | – | – | 0.0067 | 0.0629 | 0.0568 | 0.0854 | – | 0.0617 | 0.0413 | – | 0.0499 | 0.0758 | 0.0687 |
| MGESLFKGPRDYNPISSSICHLTNESDGHTTSLYGIGFGPFIITNKHLFRRNNGTLVVQSLHGVFKVKDTTTLQQHLVDGRDMIIIRMPKDFPPFPQKLKFREPQREERICLVTTNFQTKSMSSMVSDTSCTFPSGDGIFWKHWIQTKDGQCGSPLVSTRDGFIVGIHSASNFTNTNNYFTSVPKNFMELLTNQEAQQWVSGWRLNADSVLWGMHKVFMVKPEEPFQPVKEATQL [G214M] | 0.0489 | 0.0639 | 0.0487 | 0.0605 | 0.0539 | – | 0.0648 | 0.0773 | – | 0.0642 | 0.082 | – | 0.0531 | 0.0712 | – | 0.0601 | – |
